In the supplement of paper PMC4604168 (melanoma cell lines):
The list shows a part of the results. Single values are uncertain, as repeats are few or missing.

How the values were obtained:
Test in all cases: cell count relative to DMSO control; melanoma cells; higher = more viable cells
Conditions in all cases: library dose: standard library concentration; 72 h
A101D = test system: A101D
A2058 = test system: A2058
A375 = test system: A375
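Further: cells treated in 1,536-well plates, then fixed and DAPI-stained, with nuclei counted from automated high-throughput microscope images.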

Row | SMILES | cell count (A101D) | cell count (A2058) | cell count (A375)
1 | COc1ccc(C2=N[C@@H](c3ccc(Cl)cc3)[C@@H](c3ccc(Cl)cc3)N2C(=O)N2CCNC(=O)C2)c(OC(C)C)c1 [Nutlin-3] + OCCn1cc(-c2cnc3nnn(Cc4ccc5ncccc5c4)c3n2)cn1 [PF04217903] (first compound 0.5 µM, partner dose 5 µM) | 58.9% | 106% | 86.8%
2 | CC(C)C[C@H](NC(=O)[C@H](Cc1ccccc1)NC(=O)c1cnccn1)B(O)O [Bortezomib] + Cn1cncc1[C@@](N)(c1ccc(Cl)cc1)c1ccc2c(c1)c(-c1cccc(Cl)c1)cc(=O)n2C [tipifarnib] (first compound 0.005 µM, partner dose 0.05 µM) | 9.43% | 10.8% | 92.8%
3 | Cn1c(=O)n(-c2ccc(C(C)(C)C#N)cc2)c2c3cc(-c4cnc5ccccc5c4)ccc3ncc21 + O=C(CCCCCCC(=O)Nc1ccccc1)NO [vorinostat] (first compound 0.02 µM, partner dose 0.4 µM) | 74.1% | 80.4% | 86.1%
4 | Cc1cn(-c2cc(NC(=O)c3ccc(C)c(Nc4nccc(-c5cccnc5)n4)c3)cc(C(F)(F)F)c2)cn1 [nilotinib] + C=CCn1c(=O)c2cnc(Nc3ccc(N4CCN(C)CC4)cc3)nc2n1-c1cccc(C(C)(C)O)n1 [MK1775] (first compound 1 µM, partner dose 0.1 µM) | 66.2% | 85.1% | 81.2%
5 | COc1ccc(C2=N[C@@H](c3ccc(Cl)cc3)[C@@H](c3ccc(Cl)cc3)N2C(=O)N2CCNC(=O)C2)c(OC(C)C)c1 [Nutlin-3] + CC(=O)c1c(C)c2cnc(Nc3ccc(N4CCNCC4)cn3)nc2n(C2CCCC2)c1=O [palbociclib] (first compound 0.5 µM, partner dose 0.2 µM) | 54.6% | 96.4% | 60.2%
6 | CC(C)C[C@H](NC(=O)[C@H](Cc1ccccc1)NC(=O)c1cnccn1)B(O)O [Bortezomib] + CNC(=O)c1cc(Oc2ccc(NC(=O)Nc3ccc(Cl)c(C(F)(F)F)c3)cc2)ccn1 [sorafenib] (first compound 0.005 µM, partner dose 2 µM) | 15% | 12% | 126%
7 | COc1ccc(C2=N[C@@H](c3ccc(Cl)cc3)[C@@H](c3ccc(Cl)cc3)N2C(=O)N2CCNC(=O)C2)c(OC(C)C)c1 [Nutlin-3] + C=CCNC1=C2C[C@@H](C)C[C@H](OC)[C@H](O)[C@@H](C)/C=C(\C)[C@H](OC(N)=O)[C@@H](OC)/C=C\C=C(/C)C(=O)NC(=CC1=O)C2=O [Tanespimycin] (first compound 0.5 µM, partner dose 0.01 µM) | 64.6% | 84.8% | 101%
8 | Cc1cn(-c2cc(NC(=O)c3ccc(C)c(Nc4nccc(-c5cccnc5)n4)c3)cc(C(F)(F)F)c2)cn1 [nilotinib] + Nc1ccn([C@@H]2O[C@H](CO)[C@@H](O)C2(F)F)c(=O)n1 [gemcitabine] (first compound 1 µM, partner dose 0.002 µM) | 99.9% | 92.9% | 123%
9 | CC(C)C[C@H](NC(=O)[C@H](Cc1ccccc1)NC(=O)c1cnccn1)B(O)O [Bortezomib] + CC(C)(C)c1cnc(CSc2cnc(NC(=O)C3CCNCC3)s2)o1 [SNS-032] (first compound 0.005 µM, partner dose 0.05 µM) | 6.65% | 19.6% | 79.4%
10 | Cn1c(=O)n(-c2ccc(C(C)(C)C#N)cc2)c2c3cc(-c4cnc5ccccc5c4)ccc3ncc21 + Cc1nc(Nc2ncc(C(=O)Nc3c(C)cccc3Cl)s2)cc(N2CCN(CCO)CC2)n1 [dasatanib] (first compound 0.02 µM, partner dose 0.02 µM) | 69.9% | 48.2% | 71.4%
11 | COc1ccc(C2=N[C@@H](c3ccc(Cl)cc3)[C@@H](c3ccc(Cl)cc3)N2C(=O)N2CCNC(=O)C2)c(OC(C)C)c1 [Nutlin-3] + C[C@]1(O)C[C@@H](c2nc(-c3ccc4ccc(-c5ccccc5)nc4c3)c3c(N)nccn32)C1 [OSI906] (first compound 0.5 µM, partner dose 2 µM) | 88.6% | 93.5% | 97.9%
12 | COc1ccc(C2=N[C@@H](c3ccc(Cl)cc3)[C@@H](c3ccc(Cl)cc3)N2C(=O)N2CCNC(=O)C2)c(OC(C)C)c1 [Nutlin-3] + CC(C)C[C@H](NC(=O)[C@H](Cc1ccccc1)NC(=O)c1cnccn1)B(O)O [Bortezomib] (first compound 0.5 µM, partner dose 0.005 µM) | 10.5% | 11.4% | 75.7%
13 | CC(C)C[C@H](NC(=O)[C@H](Cc1ccccc1)NC(=O)c1cnccn1)B(O)O [Bortezomib] + C#Cc1cccc(Nc2ncnc3cc(OCCOC)c(OCCOC)cc23)c1 [erlotinib] (first compound 0.005 µM, partner dose 4 µM) | 15.9% | 10.1% | 93%
14 | Cn1c(=O)n(-c2ccc(C(C)(C)C#N)cc2)c2c3cc(-c4cnc5ccccc5c4)ccc3ncc21 + Cc1ccc(NC(=O)c2cccc(N(C)C)c2)cc1NC(=O)c1ccc(O)cc1 [ZM336372] (first compound 0.02 µM, partner dose 10 µM) | 84.5% | 66.3% | 95.2%
15 | CC(C)C[C@H](NC(=O)[C@H](Cc1ccccc1)NC(=O)c1cnccn1)B(O)O [Bortezomib] + COc1ccc(Cl)c(Nc2nc3ccccc3nc2NS(=O)(=O)c2cccc(NC(=O)C(C)(C)N)c2)c1 [XL147] (first compound 0.005 µM, partner dose 4 µM) | 12.5% | 13.9% | 100%
16 | COc1ccc(C2=N[C@@H](c3ccc(Cl)cc3)[C@@H](c3ccc(Cl)cc3)N2C(=O)N2CCNC(=O)C2)c(OC(C)C)c1 [Nutlin-3] + CCCCCCCCCCCC1=C(O)C(=O)C=C(O)C1=O [Embelin] (first compound 0.5 µM, partner dose 6 µM) | 53.6% | 96.6% | 97%
17 | Cn1c(=O)n(-c2ccc(C(C)(C)C#N)cc2)c2c3cc(-c4cnc5ccccc5c4)ccc3ncc21 + COc1ccc(-c2ccc3c(N4CCOCC4)nc(N4C[C@@H](C)O[C@@H](C)C4)nc3n2)cc1CO [KU0063794] (first compound 0.02 µM, partner dose 0.1 µM) | 70.8% | 62.8% | 99.1%
18 | CC(C)C[C@H](NC(=O)[C@H](Cc1ccccc1)NC(=O)c1cnccn1)B(O)O [Bortezomib] + Nc1ncn([C@H]2C[C@H](O)[C@@H](CO)O2)c(=O)n1 [decitabine] (first compound 0.005 µM, partner dose 0.5 µM) | 10.5% | 14.4% | 82.6%
19 | CC(C)C[C@H](NC(=O)[C@H](Cc1ccccc1)NC(=O)c1cnccn1)B(O)O [Bortezomib] + Nc1ccn([C@@H]2O[C@H](CO)[C@@H](O)C2(F)F)c(=O)n1 [gemcitabine] (first compound 0.005 µM, partner dose 0.002 µM) | 14.7% | 13.6% | 85.1%
